Our source for the binding signal values is paper PMC9911399, “Two distinct binding modes provide the RNA-binding protein RbFox with extraordinary sequence specificity”.

B1: UCAAUAA (DNA:RNA)
RNA: GGGAGACCGGAAUUCAGAUUGUCCUCAAUAAUUAAAUCCCGUCGUAGCCACCA
DNA 1: CAATCTGAATTCCGGTCTCCC
DNA 2: TGGTGGCTACGACGGGATT
B2: UCCGAUA (DNA:RNA)
RNA: B1 RNA with A27C, A28G, U29A, A30U
DNA 1: CAATCTGAATTCCGGTCTCCC
DNA 2: TGGTGGCTACGACGGGATT
B3: GUUCUAU (DNA:RNA)
RNA: B1 RNA with U25G, C26U, A27U, A28C, A31U
DNA 1: CAATCTGAATTCCGGTCTCCC
DNA 2: TGGTGGCTACGACGGGATT
B4: AAAUGGC (DNA:RNA)
RNA: B1 RNA with U25A, C26A, A28U, U29G, A30G, A31C
DNA 1: CAATCTGAATTCCGGTCTCCC
DNA 2: TGGTGGCTACGACGGGATT
B5: GCGUGAA (DNA:RNA)
RNA: B1 RNA with U25G, A27G, A28U, U29G
DNA 1: CAATCTGAATTCCGGTCTCCC
DNA 2: TGGTGGCTACGACGGGATT
B6: GCGGCGG (DNA:RNA)
RNA: B1 RNA with U25G, A27G, A28G, U29C, A30G, A31G
DNA 1: CAATCTGAATTCCGGTCTCCC
DNA 2: TGGTGGCTACGACGGGATT
B7: UGAAGCC (DNA:RNA)
RNA: B1 RNA with C26G, U29G, A30C, A31C
DNA 1: CAATCTGAATTCCGGTCTCCC
DNA 2: TGGTGGCTACGACGGGATT
B8: UGGCUUG (DNA:RNA)
RNA: B1 RNA with C26G, A27G, A28C, A30U, A31G
DNA 1: CAATCTGAATTCCGGTCTCCC
DNA 2: TGGTGGCTACGACGGGATT
B9: AAUUCAG (DNA:RNA)
RNA: B1 RNA with U25A, C26A, A27U, A28U, U29C, A31G
DNA 1: CAATCTGAATTCCGGTCTCCC
DNA 2: TGGTGGCTACGACGGGATT
B10: UUAGUGG (DNA:RNA)
RNA: B1 RNA with C26U, A28G, A30G, A31G
DNA 1: CAATCTGAATTCCGGTCTCCC
DNA 2: TGGTGGCTACGACGGGATT
B11: GACACAC (DNA:RNA)
RNA: B1 RNA with U25G, C26A, A27C, U29C, A31C
DNA 1: CAATCTGAATTCCGGTCTCCC
DNA 2: TGGTGGCTACGACGGGATT
B12: AGGGCGU (DNA:RNA)
RNA: GGGAGACCGGAAUUCAGAUUGUCCAGGGCGUUUAAAUCCCGUCGUAGCCACCA
DNA 1: CAATCTGAATTCCGGTCTCCC
DNA 2: TGGTGGCTACGACGGGATT
B13: CAUAGCU (DNA:RNA)
RNA: B12 RNA with A25C, G26A, G27U, G28A, C29G, G30C
DNA 1: CAATCTGAATTCCGGTCTCCC
DNA 2: TGGTGGCTACGACGGGATT
B14: CUUCCUG (DNA:RNA)
RNA: B12 RNA with A25C, G26U, G27U, G28C, G30U, U31G
DNA 1: CAATCTGAATTCCGGTCTCCC
DNA 2: TGGTGGCTACGACGGGATT
B15: GACUUGA (DNA:RNA)
RNA: B1 RNA with U25G, C26A, A27C, A28U, A30G
DNA 1: CAATCTGAATTCCGGTCTCCC
DNA 2: TGGTGGCTACGACGGGATT
B16: UCUUAUG (DNA:RNA)
RNA: B1 RNA with A27U, A28U, U29A, A30U, A31G
DNA 1: CAATCTGAATTCCGGTCTCCC
DNA 2: TGGTGGCTACGACGGGATT
B17: UGGUUGU (DNA:RNA)
RNA: B12 RNA with A25U, G28U, C29U
DNA 1: CAATCTGAATTCCGGTCTCCC
DNA 2: TGGTGGCTACGACGGGATT
B18: GACGAAU (DNA:RNA)
RNA: B12 RNA with A25G, G26A, G27C, C29A, G30A
DNA 1: CAATCTGAATTCCGGTCTCCC
DNA 2: TGGTGGCTACGACGGGATT
B19: CUUUAGC (DNA:RNA)
RNA: B12 RNA with A25C, G26U, G27U, G28U, C29A, U31C
DNA 1: CAATCTGAATTCCGGTCTCCC
DNA 2: TGGTGGCTACGACGGGATT
B20: GCGCUGC (DNA:RNA)
RNA: B12 RNA with A25G, G26C, G28C, C29U, U31C
DNA 1: CAATCTGAATTCCGGTCTCCC
DNA 2: TGGTGGCTACGACGGGATT
B21: UCGCCCA (DNA:RNA)
RNA: B1 RNA with A27G, A28C, U29C, A30C
DNA 1: CAATCTGAATTCCGGTCTCCC
DNA 2: TGGTGGCTACGACGGGATT
B22: GAAGCCU (DNA:RNA)
RNA: B12 RNA with A25G, G26A, G27A, G30C
DNA 1: CAATCTGAATTCCGGTCTCCC
DNA 2: TGGTGGCTACGACGGGATT
B23: UGACACA (DNA:RNA)
RNA: B1 RNA with C26G, A28C, U29A, A30C
DNA 1: CAATCTGAATTCCGGTCTCCC
DNA 2: TGGTGGCTACGACGGGATT
B24: CAUACAA (DNA:RNA)
RNA: B1 RNA with U25C, C26A, A27U, U29C
DNA 1: CAATCTGAATTCCGGTCTCCC
DNA 2: TGGTGGCTACGACGGGATT
B25: CCCCCCU (DNA:RNA)
RNA: B12 RNA with A25C, G26C, G27C, G28C, G30C
DNA 1: CAATCTGAATTCCGGTCTCCC
DNA 2: TGGTGGCTACGACGGGATT
B26: CAAACUC (DNA:RNA)
RNA: B1 RNA with U25C, C26A, U29C, A30U, A31C
DNA 1: CAATCTGAATTCCGGTCTCCC
DNA 2: TGGTGGCTACGACGGGATT
B27: GCUACGA (DNA:RNA)
RNA: B1 RNA with U25G, A27U, U29C, A30G
DNA 1: CAATCTGAATTCCGGTCTCCC
DNA 2: TGGTGGCTACGACGGGATT
B28: ACUUAAA (DNA:RNA)
RNA: B1 RNA with U25A, A27U, A28U, U29A
DNA 1: CAATCTGAATTCCGGTCTCCC
DNA 2: TGGTGGCTACGACGGGATT
B29: ACCCAGC (DNA:RNA)
RNA: B12 RNA with G26C, G27C, G28C, C29A, U31C
DNA 1: CAATCTGAATTCCGGTCTCCC
DNA 2: TGGTGGCTACGACGGGATT
B30: GCUGACA (DNA:RNA)
RNA: B1 RNA with U25G, A27U, A28G, U29A, A30C
DNA 1: CAATCTGAATTCCGGTCTCCC
DNA 2: TGGTGGCTACGACGGGATT
B31: GACUUCU (DNA:RNA)
RNA: B12 RNA with A25G, G26A, G27C, G28U, C29U, G30C
DNA 1: CAATCTGAATTCCGGTCTCCC
DNA 2: TGGTGGCTACGACGGGATT

Residue numbers refer to the chain shown, from its start. The list shows a part of the results.

This assay deals with T1, RBFOX1 RRM (Homo sapiens, UniProt Q9NWB1 109-208).
T1 sequence: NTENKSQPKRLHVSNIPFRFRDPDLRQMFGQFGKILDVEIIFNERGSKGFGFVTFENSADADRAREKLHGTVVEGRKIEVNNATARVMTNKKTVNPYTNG
As to the kind of experiment: EMSA; HiTS-Eq, 1 nM pool, 10 min; buffer printed only for the single-RNA assays: 10 mM Tris pH 7.5, 150 mM NaCl, 3.4 mM EDTA, 0.001% NP-40, 30 C. Conditions: tags: His6 N-terminal (pET28a); label: 5' 32P. Put shortly:
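A pool of RNA with 7 randomized nucleotides, 5′-radiolabelled and with DNA-annealed flanks, was equilibrated at 1 nM for 10 min in 50 µL with purified RbFox RRM, wild type or mutant, across increasing protein concentrations. Free RNA was separated by 8% native PAGE, excised, reverse-transcribed, barcoded by PCR and sequenced. Relative association constants were obtained from read-count changes of each RNA species versus the control reaction and normalised to the cognate motif.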
As to B1, the binding signal was 0.00079 KA relative to UGCAUGU.

As for B2, the binding signal was 0.00441 KA relative to UGCAUGU.

As for B3, the binding signal is 0.00908 KA relative to UGCAUGU.

Consider B4, for which the binding signal is 0.00657 KA relative to UGCAUGU.

For B5, the binding signal was 0.0114 KA relative to UGCAUGU.

Turning to B6, the binding signal was 0.0288 KA relative to UGCAUGU.

Consider B7, for which the binding signal was 0.0111 KA relative to UGCAUGU.

On to B8, for which the binding signal was 0.0526 KA relative to UGCAUGU.

Take B9: the binding signal is 0.00854 KA relative to UGCAUGU.

On to B10, for which the binding signal was 0.00895 KA relative to UGCAUGU.

Turning to B11, the binding signal was 0.00291 KA relative to UGCAUGU.

With B12, the binding signal was 0.0222 KA relative to UGCAUGU.

B13: the binding signal was 0.00495 KA relative to UGCAUGU.

For the molecule B14, the binding signal is 0.0131 KA relative to UGCAUGU.

For the molecule B15, the binding signal was 0.0187 KA relative to UGCAUGU.

Turning to B16, the binding signal is 0.0119 KA relative to UGCAUGU.

Take B17: the binding signal was 0.0314 KA relative to UGCAUGU.

Consider B18, for which the binding signal was 0.0126 KA relative to UGCAUGU.

B19: the binding signal was 0.0111 KA relative to UGCAUGU.

In the case of B20, the binding signal was 0.0232 KA relative to UGCAUGU.

For the molecule B21, the binding signal was 0.00298 KA relative to UGCAUGU.

For B22, the binding signal is 0.00942 KA relative to UGCAUGU.

Regarding B23, the binding signal is 0.00643 KA relative to UGCAUGU.

In the case of B24, the binding signal is 0.000734 KA relative to UGCAUGU.

B25: the binding signal is 0.00046 KA relative to UGCAUGU.

Consider B26, for which the binding signal is 0.00115 KA relative to UGCAUGU.

As for B27, the binding signal was 0.009 KA relative to UGCAUGU.

On to B28, for which the binding signal was 0.00202 KA relative to UGCAUGU.

With B29, the binding signal was 0.00224 KA relative to UGCAUGU.

B30: the binding signal was 0.0129 KA relative to UGCAUGU.

In the case of B31, the binding signal is 0.0118 KA relative to UGCAUGU.
